Experimental findings from ChEMBL document CHEMBL4888484, “Replenishing the malaria drug discovery pipeline: Screening and hit evaluation of the MMV Hit Generation Library 1 (HGL1) against asexual blood stage Plasmodium falciparum ,using a nano luciferase reporter read-out” (2022) are described below.

Among all 150,000 compounds or so, about 540 (0.36%) showed an effect of 50% or more. The list shows a part of the results.

This test relates to Plasmodium falciparum. In words: Primary screen in NF54 nanoGlo assay, in single point, at 2uM, 72h; a lower Z score goes with more inhibition. Type of test: functional, Erythrocyte. The settings on record: timepoint 72 hour.
The term % Inhibition denotes the relative decrease from the control value, in per cent. Regarding `O[C@@H](CN1CCC(c2ccn[nH]2)CC1)C(F)(F)F`, the “% Inhibition” value is given as 27% and the Z score was -3.09.
For `Cc1cnc(C(=O)Nc2ccccc2NCCc2ccccn2)cn1`, in that order: -13% and 1.7.
As to `Cc1cc(C)cc(CN2CCN(C(=O)[C@@H](O)Cc3ccccc3)CC2=O)c1`, the “% Inhibition” value is reported as -5% and the Z score is recorded as 0.83.
Turning to `O=C(Nc1nccs1)c1csc2c1CC[C@H](c1ccccc1)C2`, the “% Inhibition” value was -2% and the Z score came out at 0.25.
Consider `O=C(CCc1nc(-c2ccsc2)no1)N[C@H]1CCCCNC1=O`, for which the “% Inhibition” value is recorded as -6% and the Z score is recorded as 1.17.
For `Cn1cc(CCCNc2ccc(Cl)c(C#N)n2)cn1`, in that order: -3% and 0.41.
`CCc1c(NC(=O)N2CCCCCC2)cnn1-c1cccc(C)c1`: the “% Inhibition” value was -13% and the Z score amounted to 1.28.
Turning to `C[C@@H]1CC[C@H](C)N1C(=O)CC[C@@H]1NC(=O)NC1=O`, the “% Inhibition” value is reported as -1% and the Z score was found to be 0.1.
`C[C@@H]1CN(C(=O)c2ccc(-c3nn(C)c4ccccc34)cc2)C[C@H](C)O1`: the “% Inhibition” value is given as -4% and the Z score worked out at 0.49.
For `O=C(Nc1nc(-c2ccc(F)c(Cl)c2)cs1)C1CCN(C2CC2)CC1`, in that order: -7% and 0.95.
For `C=CCc1cc(CNCCN2CCC[C@H](CO)C2)ccc1OC`, in that order: -4% and 0.64.
`COc1ccccc1CN(C)c1nc2ccccc2s1`: the “% Inhibition” value was found to be 3% and the Z score is given as -0.26.
On the same counts, the results for `CC(=O)N1CC[C@](C)(C(=O)Nc2cn(C)nc2C)C1` are 9% and -1.55.
On the same counts, the results for `O=C(c1ccnnc1)N1CC[C@@](O)(c2ccccc2)[C@H]2CCCC[C@@H]21` are -4% and 0.35.
On to `NC(=NCCOc1ncc(Cl)cc1Cl)N1CCOCC1`, for which the “% Inhibition” value is on record as -11% and the Z score turned out to be 1.79.
With `CN1CC[C@@]2(CCCN(c3nc4ccccc4s3)C2)C1`, the “% Inhibition” value is reported as -5% and the Z score turned out to be 0.97.
On the same counts, the results for `CC(=O)OCC(OC(C)=O)C(OC(C)=O)C(OC(C)=O)C(=O)Nc1ccccc1` (stereo not given) are -16% and 3.07.
For the compound `CC(C)[C@@H](CO)NC(=O)c1ccc(F)cc1O`, the “% Inhibition” value stood at 10% and the Z score is recorded as -1.4.
On the same counts, the results for `Cc1c(C(=O)N2CC[C@H](CC(C)(C)C)C2(C)C)nnn1-c1cnn(C)c1` are 36% and -4.89.
On to `CCO[C@H]1C[C@@H](NC(=O)c2cc(C)n(C(F)F)n2)C1`, for which the “% Inhibition” value is given as -8% and the Z score turned out to be 0.93.
Take `O=C(CNC(=O)c1cccs1)Nc1n[nH]c2c(Cl)cccc12`: the “% Inhibition” value is -2% and the Z score came out at 0.17.
For `CC(=O)Nc1nc(CN(C)CCOc2ccccc2Cl)cs1`, in that order: 6% and -1.06.
`C[C@H](O)CN(Cc1c(-c2ccccc2)nn(C)c1Oc1ccccc1Cl)CC1CC1`: the “% Inhibition” value is listed as -2% and the Z score stood at 0.33.
On the same counts, the results for `CN(CC(=O)NC(c1ccccc1)c1ccccc1)S(=O)(=O)c1ccc2c(c1)c(=O)n(C)c(=O)n2C` are -10% and 1.21.
As to `CCN1CCN(c2nc3ncn(CC(=O)NCCc4ccc(Cl)cc4)c(=O)c3s2)CC1`, the “% Inhibition” value amounted to 49% and the Z score is -1.76.
For `COc1nc(OC)nc(-c2ccc(C(N)=O)cc2)n1`, in that order: -15% and 2.03.
On the same counts, the results for `Cn1cccc(C(=O)N2C3CCC2CC(n2ccnc2)C3)c1=O` (stereo not given) are -14% and 1.74.
For `Cn1cc(C(=O)N2C3C=CCC2CC3)nn1` (stereo not given), the “% Inhibition” value is listed as -1% and the Z score was 0.15.
For `COc1ccc(-c2ccccc2-c2nnc(C)s2)c(OC)c1OC`, in that order: -3% and 0.48.
For `O=C(NCC1CCC2(CCCCC2)O1)N1CCOC(C2CCC2)C1` (stereo not given), in that order: 3% and -0.47.
On the same counts, the results for `Cc1ccc(NS(=O)(=O)c2c(C)c(C)cc3c(C)c(C(=O)N4CCOCC4)oc23)cc1` are 5% and -0.63.
Consider `CNS(=O)(=O)c1ccc(Cl)cc1`, for which the “% Inhibition” value was -11% and the Z score is on record as 1.64.
For `COCCN(C)Cc1ccc(CC2CCN(C(=O)c3ccc(C)nc3O)CC2)cc1`, the “% Inhibition” value is -3% and the Z score is 0.57.
On the same counts, the results for `Cc1cc(Cl)cc2c1OCCC[C@@H]2NCc1cnc2n1CCCC2` are -3% and 0.66.
Regarding `O=C(NCc1cc2n(n1)CCN(C1CCCCC1)C2)c1ccncc1`, the “% Inhibition” value is 3% and the Z score is -0.52.
For `c1ccc(-n2ncc(CN3CCCC4CCCCC43)n2)cc1` (stereo not given), the “% Inhibition” value worked out at 1% and the Z score was -0.04.
For `O=S(=O)(Cc1ccon1)N1CCN(Cc2nccn2C(F)F)CC1`, the “% Inhibition” value is -13% and the Z score is 1.83.
Turning to `O=C(NCCc1cncnc1)N1CCOc2cccc(Br)c2C1`, the “% Inhibition” value is recorded as -3% and the Z score is listed as 0.66.
For `CCN(CC)C(=O)Cn1c(=O)n(Cc2ccc(C(=O)NCCc3ccc(OC)c(OC)c3)cc2)c(=O)c2ccccc21`, in that order: 0% and -0.05.
For the compound `CC(=O)N(CCc1noc(C2CCC2)n1)[C@H]1CCN(C(=O)c2ccnnc2)C1`, the “% Inhibition” value is -1% and the Z score is 0.19.
On the same counts, the results for `COc1ccccc1CNC1=NCCNC12CCN(S(=O)(=O)c1cc(C)ccc1C)CC2` are -5% and 0.6.
As for `CC[C@H](Oc1ccccc1C)c1nnc(Cc2cn3ccccc3n2)o1`, the “% Inhibition” value is on record as -8% and the Z score was 1.28.
For `CC(C)=CCC[C@@]1(C)CCC(=O)N(CCc2c[nH]cn2)C1`, in that order: 1% and -0.13.
On the same counts, the results for `CC(C)c1ccc(-c2nc(CNc3cc4c(cc3Cl)NC(=O)CO4)cs2)cc1` are 35% and -4.78.
Turning to `CCN1CCN(CCNC(=O)c2ccc(NC(=O)c3nnc(COC)s3)cc2)CC1`, the “% Inhibition” value is on record as 0% and the Z score was determined as 0.04.
With `Cc1ccccc1OC[C@@H](O)Cn1nc2c(cc1=O)CCC2`, the “% Inhibition” value was -4% and the Z score came to 0.6.
As for `CN(Cc1cccc(Cl)c1Cl)S(=O)(=O)[C@H]1CCOC1`, the “% Inhibition” value was -5% and the Z score was 0.45.
`COc1ccc(F)c(-c2nc(C3CCC3)n[nH]2)c1`: the “% Inhibition” value was -2% and the Z score came out at 0.29.
On the same counts, the results for `CC(C)N(C)c1ccccc1NC(=O)CN(C)C(=O)c1cccs1` are -10% and 1.3.
For `CCc1nocc1CN1CCO[C@@H](CNc2nccn(C)c2=O)C1`, in that order: -6% and 1.27.
With `CN(Cc1cnc(N)nc1)c1ncc2c(n1)CCN2c1ccccc1`, the “% Inhibition” value was -8% and the Z score turned out to be 1.4.
Regarding `CC[C@H](C)N(Cc1csc(COc2cccc(C)c2)n1)C(=O)c1cccc(OC)c1`, the “% Inhibition” value was -11% and the Z score is 1.29.
Consider `CN(CC1CCCC1O)C(=O)c1cc(F)c(Cl)cc1Cl` (stereo not given), for which the “% Inhibition” value is listed as -8% and the Z score was 0.79.
For the compound `Cc1nc([C@H](C)NC(=O)c2ccc3ncsc3c2)n[nH]1`, the “% Inhibition” value was -9% and the Z score was determined as 1.23.
For `C=CCN1CCc2c(c(C(=O)N(C)Cc3cscn3)nn2Cc2ccccc2)C1`, in that order: -14% and 1.58.
On the same counts, the results for `CC1CCCC1CC(=O)N1C[C@@H]2[C@H](C1)[C@H]2NC(=O)c1conc1C1CC1` (stereo not given in full) are -4% and 0.57.
As to `CCc1ccccc1C(=O)NC1CCC(N2C(=O)CCC2=O)CC1` (stereo not given), the “% Inhibition” value is -8% and the Z score was determined as 1.09.
On the same counts, the results for `CC(C)(C#N)c1nc(Cc2ccc(F)c(Br)c2)no1` are -18% and 1.52.
For `c1ccc(-c2nnc([C@H]3CCN(CC4CCCCC4)C3)o2)cc1`, in that order: -8% and 1.17.
On to `Cc1cccc(N2CCOC3(CCOCC3)C2)n1`, for which the “% Inhibition” value is -8% and the Z score is 0.73.
For `COc1ccc(CCc2nc(NC(=O)c3cc(-c4ccc(OC)cc4)nn3C)n[nH]2)cc1`, the “% Inhibition” value is listed as -4% and the Z score worked out at 0.75.
On the same counts, the results for `CCc1cccc(-n2c([C@H]3CC(=O)N(Cc4ccccc4)C3)n[nH]c2=O)c1` are -8% and 1.51.
Turning to `O=C(NCc1cncc(-c2ccco2)c1)Nc1cccnc1`, the “% Inhibition” value stood at 9% and the Z score is listed as -1.23.
As to `Cc1ccc(Br)c(NC(=O)NCC(F)(F)F)c1`, the “% Inhibition” value is recorded as -11% and the Z score amounted to 1.48.
For `CC[C@@H](CNC(=NC)NCc1noc(C)n1)Oc1ccccc1`, in that order: -3% and 0.32.
For `O=C(C1=Cc2ccccc2OC1)N1CCN(c2cccc(C(F)(F)F)c2)CC1`, the “% Inhibition” value is on record as -3% and the Z score stood at 0.29.
Take `CC(C)(C)n1nc(-c2ccco2)nc1[C@@H]1C[C@@H](O)CN1`: the “% Inhibition” value is -6% and the Z score came out at 0.74.
For the compound `CCC[C@H]1CCN(C2CCN(c3cccc(N4CCCC4=O)c3)CC2)C1`, the “% Inhibition” value was -9% and the Z score was 1.21.
With `CCc1cc2c(N3CCCC4(C3)OCCO4)ncnc2s1`, the “% Inhibition” value is on record as -7% and the Z score was determined as 1.23.
On the same counts, the results for `C[C@]1(/[N+]([O-])=C/c2ccc(F)cc2)CCCCC1=O` are 13% and -1.5.
For the compound `CN1CCCN(C(=O)CCc2ccc3c(ccn3C)c2)CC1`, the “% Inhibition” value is reported as -3% and the Z score stood at 0.55.
For `CCC[C@H]1CN(S(=O)(=O)N2CCC(C)(C)CC2)C[C@@H]1NC(C)=O`, in that order: 5% and -1.03.
For `Cc1nnc(CN(C)Cc2csc(C(C)(C)O)n2)s1`, in that order: 2% and -0.28.
Regarding `CN1CCOC(C(=O)NC(c2c(F)cccc2F)C(F)(F)F)C1` (stereo not given), the “% Inhibition” value is 36% and the Z score is reported as -4.79.
`O=C(CCc1nnc2ccc(N3CCOCC3)nn12)Nc1cccnc1`: the “% Inhibition” value is on record as -14% and the Z score came to 2.33.
On the same counts, the results for `CC(=O)Oc1c(C)cc(CN2C[C@H](O)[C@@H](N3CCN(C)CC3)C2)cc1C` are -8% and 1.04.
On the same counts, the results for `COc1ccc(C(=O)N[C@H]2CCC23CCOCC3)cn1` are 10% and -1.35.
For `CC(=O)N(c1nc(CN2C[C@H](C)Oc3cc(C)c(Br)cc32)cs1)C1CC1`, in that order: 1% and -0.24.
For `CCc1cccc(C)c1Nc1c(-c2c[nH]c3ccccc23)nc2cnccn12`, the “% Inhibition” value is recorded as -6% and the Z score amounted to 0.61.
For `CC(C)c1nc(CN2CCC(=O)N(C)c3cc(F)ccc32)n[nH]1`, the “% Inhibition” value is on record as -12% and the Z score stood at 1.54.
For `CCOC(=O)[C@]12CCCN[C@@H]1CCN(c1nc3c(c(NC)n1)CCC3)C2`, the “% Inhibition” value is listed as -12% and the Z score was 1.12.
For the compound `Cn1c(CNC2CCCC2Cc2ccccc2)nnc1C1CC1` (stereo not given), the “% Inhibition” value came out at 3% and the Z score is given as -0.38.
Consider `CC(C)[C@H](C)NC(=O)CNCCn1cccn1`, for which the “% Inhibition” value is given as -3% and the Z score came out at 0.55.
On the same counts, the results for `NC(=O)CCOc1ccccc1NCc1cccc(-c2ccncc2)c1` are -7% and 0.67.
For `CCc1nc(C)c(C(=O)N2CCc3[nH]cnc3[C@H]2c2cccnc2)s1`, in that order: -1% and 0.18.
